Reference: PubChem BioAssay AID651820 (National Center for Advancing Translational Sciences (NCATS), 2012)
Hit rate of the full screen: of about 340,000 compounds, about 12,000 (3.5%) were called active. The inconclusive results got no clear call from the source; some entries with a clear call stand among them for comparison. Calls come from the whole dose curve; as a rule, active = well fitted inhibition curve with a large enough effect; inconclusive = small, poorly fitted or top-dose-only effect, or another doubt; inactive = no such curve, though single readings can be large or run the other way. No potency is given beside an inconclusive call; the fits are too rough.

Experiment: qHTS Assay for Inhibitors of Hepatitis C Virus (HCV)
Details: Huh7.5.1 HCVcc-Cre (HCVcc is cell-culture hepatitis C virus) infection, luciferase reporter, 44 h; series mostly up to 41.8 µM
In short: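 HCVcc-Cre virus at an moi near 0.5 was added right after compound to cells cultured 4 h from seeding (1,000 cells/well). Luciferase activity was determined 44 h later, 15 min after substrate addition at RT.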
Potency is the fitted concentration of half-maximal effect; tags give direction and shape of the fitted curve.

Compound	Potency
O=C(NCCSCc1ccccc1)c1ccc(Cl)c(S(=O)(=O)N2CCOCC2)c1	inconclusive [inhibitor, single point]
COc1ccc(C(O)c2nccc3cc(OC)c(OC)cc23)cc1OC (configuration not stated)	inconclusive [inhibitor, partial curve]
Cc1nc(-c2c(C(F)(F)F)noc2-c2ccc(O)cc2O)cs1	inconclusive [inhibitor, single point]
CCN(CC)C(=O)CN(c1cc2c(cc1OC)oc1ccccc12)S(=O)(=O)c1ccccc1	active: 10 µM
CN(C(=O)COC(=O)c1nn(C)c(=O)c2ccccc12)c1c(N)n(Cc2ccccc2)c(=O)[nH]c1=O	inactive
CCCN(C(=O)c1ccc(OCC(C)C)cc1)c1c(N)n(Cc2ccccc2)c(=O)[nH]c1=O	inconclusive [inhibitor, partial curve]
Cc1ccccc1-c1nc(C(=O)NCC2CCCO2)cc2c1[nH]c1ccccc12 (configuration not stated)	inconclusive [inhibitor, full curve]
O=C(COc1ccc2ccccc2c1Br)N1CCCCC1	inactive
CCOC(=O)C(=Cc1ccccc1OC)C(=O)OCC	active: 25.1 µM
CC(Sc1nc2ccccc2c(=O)n1Cc1ccco1)C(=O)c1ccccc1 (configuration not stated)	inconclusive [inhibitor, partial curve]
CC(C)CCNC(=O)CN(C(=O)CCC(=O)Nc1ccccn1)c1ccc(F)c(Cl)c1	inactive
Cc1ccc(-c2cccc([C@H]3[C@@H]4C=CC[C@@H](C)[C@@H]4C(=O)N3Cc3ccccc3)c2)cc1	inconclusive [inhibitor, partial curve]
CSc1cccc(NC(=O)C2CCCN(S(=O)(=O)c3cccs3)C2)c1 (configuration not stated)	inconclusive [inhibitor, single point]
COc1cc(/C=N/NC(=O)CCn2c3ccccc3c3ccccc32)ccc1O	active: 7.94 µM
O=C(CNc1ccc(Br)cc1)Nc1ccc(S(=O)(=O)N2CCCC2)cc1	inactive
CCN1C(=O)/C(=C/N2CCc3ccccc3C2)SC1=S	inconclusive [inhibitor, partial curve, poor fit]
CC[C@@H](C)[C@@H]1CN([C@@H](CN2CCC[C@H]2CN2C(N)=NC[C@H]2C(C)C)C(C)C)C(=N)N1CCCC1CCCC1	inconclusive [inhibitor, single point]
Cc1cc(C)c(-c2c(O)c3ccccc3n(C)c2=O)c(C)c1	active: 11.2 µM
COc1ccc(NC(=O)COC(=O)C(NC(=O)c2ccc(C)cc2)C(C)C)cn1 (configuration not stated)	inactive
COc1ccccc1NC(=O)C1CCCN(S(=O)(=O)c2c(C)noc2C)C1 (configuration not stated)	inactive
O=C(Nc1ccc(N2CCN(C(=O)c3ccccc3)CC2)cc1)c1cccs1	inactive
Cc1ccc(OCCSc2nc3ccccc3n2CC(=O)O)cc1C	inactive
Cc1c(-n2c(SCC(=O)NC(C)C(C)C)nc3ccccc3c2=O)c(=O)n(-c2ccccc2)n1C (configuration not stated)	inactive
O=[N+]([O-])c1ccc(N2CCCNCC2)c2ncccc12	inconclusive [inhibitor, single point]

Compound	Potency
O=C(NCc1cccnc1)c1csc2c1CCCC2	inactive
COC(=O)C1=CN(Cc2ccc(OC)c(OC)c2)C=C(C(=O)OC)C1c1cccc(F)c1	inconclusive [inhibitor, single point]
CC(=O)Nc1cc[n+](C(C)C(=O)c2ccc(Br)cc2)cc1 (configuration not stated)	inconclusive [inhibitor, single point]
CCOC(=O)CSc1nc(C(C)C)nc2ccccc12	inactive
CCC(C)CCN1C(N(C)C)=NC[C@@H]1CC(C)C (some centres not stated)	inconclusive [inhibitor, partial curve, poor fit]
CCOc1ccc(/C=N/NC(=O)Cc2ccccc2)cc1CN1CC2CC(C1)c1cccc(=O)n1C2 (configuration not stated)	active: 7.94 µM
Cc1c(P(=S)(c2ccccc2)c2ccccc2)[n+]2ccccc2n1C	inconclusive [inhibitor, single point]
O=C(Nc1ccc(Br)cc1)Nc1ccccc1Cl	inconclusive [inhibitor, partial curve, poor fit]
Cc1cc(NC(=O)C2CCCCC2)ccc1NC(=O)c1ccccc1Cl	inconclusive [inhibitor, partial curve]
COc1cc(Br)c(C(=O)c2nccc3cc(OC)c(OC)cc23)cc1OC	inconclusive [inhibitor, single point]
COc1ccc(C2CN=NC23CCCc2ccccc2C3=O)cc1 (configuration not stated)	inconclusive [inhibitor, single point]
O=c1[nH]cnc2sc3c(c12)CCC3	inactive
COc1ccc(/C(C)=N/Nc2nc3ccccc3nc2C)cc1OC	inconclusive [inhibitor, partial curve]
CC[N+]1=C(C)C(C)(C)c2cc(C)ccc21	active: 12.6 µM
COc1ccc(C2=NCC(CSc3nccc(=O)[nH]3)S2)cc1 (configuration not stated)	inconclusive [inhibitor, partial curve]
Oc1ccc(/C=N/N(Cc2ccccc2)c2ccccc2)cc1	inconclusive [inhibitor, single point]
CCN(CC)S(=O)(=O)c1cc(NC(=O)Cc2n[nH]c(=O)c3ccccc23)ccc1C	inconclusive [inhibitor, single point]
CCCC(=O)Nc1sc(C)c(-c2ccc(C(C)CC)cc2)c1C#N (configuration not stated)	inactive
CCOC(=O)N1CCN(S(=O)(=O)c2ccc(C)cc2)CC1	inactive
O=C(C1COc2ccccc2O1)N1CCN(Cc2ccc(Br)cc2F)CC1 (configuration not stated)	inconclusive [inhibitor, single point]
Cc1nn(C(=O)CCCn2cc([N+](=O)[O-])cn2)c(C)c1Cl	inactive
Cn1nccc1C(=O)NC1CCCc2c1cnn2-c1ccccc1F (configuration not stated)	active: 0.891 µM
O=c1c2sc3nc(N4CCOCC4)c4c(c3c2ncn1-c1ccccc1)CCCC4	active: 10 µM
